According to patent publication US20260167742A1, “METHOD FOR TREATING GASTRIC CANCER BY COMBINING ANTI-HER2 ANTIBODY AND CHEMOTHERAPEUTIC AGENT, AND USE” (SHANGHAI HENLIUS BIOTECH, INC., priority 2023, published 2026):

How the values were obtained:
[1] = system: NCI-N87 cells; experiment: Apoptosis assay (Caspase-Glo 3/7); assay type: cell-based, human; conditions: 24 h treatment
Experimental: The apoptosis was assessed by measuring the activity of caspases 3/7 in gastric cancer NCI-N87 cells using the Caspase-Glo®3/7 Assay system. A xenograft human gastric cancer NCI-N87 model and a human gastric cancer PDX model were treated with the antibodies at given doses. All data are presented as mean±SEM. The p values were calculated using Student's t test. ** denotes p<0.01, and * denotes p<0.05.
The apoptosis was assessed by measuring the activity of caspases 3/7 in NCI-N87 cells using the Caspase-Glo®3/7 Assay (G8093, Promega) system. The cells were seeded in a 96-well plate (CLS3799, Corning) at about 1.5×10^4 cells/well and incubated overnight. The original medium was replaced with a drug-containing culture medium of 100 μL, and the cells were treated for 24 h. After an incubation at room temperature for 30 min, 100 μL of Caspase-Glo 3/7 reagent was added. The plate was incubated in the dark for 30 min and detected using Spark (Tecan, Switzerland) after gentle shaking.

[2] = system: gastric cancer cells SNU216; experiment: HER2 internalization (endocytosis) assay, pHrodo Green staining, flow cytometry; assay type: cell-based, human; conditions: 10 μg/mL
Experimental: (§1) A HER2 internalization assay was performed using pHrodoiFL Green STP ester amine reactive dye (P35369, Invitrogen). […] After a short wash with a wash buffer to remove unbound antibodies, one group of cells was placed on ice for freezing to stop internalization, and the remaining cells were placed in a 37° C. incubator for further incubation. After the co-incubation with the antibody, the cells were fixed with a fixation buffer (420801, Biolegend) for 30 min. Finally, all stained cells were washed with a staining buffer and analyzed on the CytoFLEX LX flow cytometer (Beckman Coulter, USA).

[3] = system: gastric cancer cells NCI-N87; experiment: as above; assay type: cell-based, human; conditions: 10 μg/mL
Experimental: as §1

[4] = Phase I clinical trial of the second anti-HER2 antibody, safety; assay type: in vivo, human; conditions: 11 subjects, at least one dose
Excerpt: In the phase I clinical trial of the second anti-HER2 antibody, as of Apr. 22, 2022, a total of 11 subjects were enrolled and given at least one dose of the anti-HER2 antibody. The 11 subjects were included in the safety analysis set.

B1: second anti-HER2 antibody: humanized IgG1 monoclonal antibody binding HER2 domain IV at an epitope different from trastuzumab; heavy chain SEQ ID NO: 5, light chain SEQ ID NO: 10 (antibody)
heavy: EVQLVESGGGLVQPGGSLRLSCAASGFTFSSYTMSWVRQAPGKGLEWVAYISAGGGSTYYPDTVKGRFTISRDNAKNSLYLQMNSLRAEDTAVYYCARHLGGTASFDYWGQGTLVTVSS[human IgG1 constant region skipped]
light: DIQMTQSPSSLSASVGDRVTITCLASQTIGTWLAWYQQKPGKAPKLLIYVATSLADGVPSRFSGSGSGTDFTLTISSLQPEDFATYYCQQNAYAPWTFGQGTKVEIKRTVAAPSVFIFPPSDEQLKSGTASVVCLLNNFYPREAKVQWKVDNALQSGNSQESVTEQDSKDSTYSLSSTLTLSKADYEKHKVYACEVTHQGLSSPVTKSFNRGEC
With B1 the “apoptosis (caspases 3/7 activity)” value [1] was “did not significantly induce the apoptosis of NCI-N87 cells”, the “HER2 internalization (endocytosis)” value [2] was “weak endocytosis” and the “HER2 internalization (endocytosis)” value [3] was “weak endocytosis”. The dose-related toxic reactions [4] was “No dose-related toxic reactions were observed”, the tolerability [4] was “well tolerated in all treatment groups” and the “treatment-emergent adverse events leading to interruption, dose reduction, or infusion rate reduction” value [4] was “no treatment-emergent adverse events leading to interruption, dose reduction, or infusion rate reduction occurred”. For the same molecule, the “treatment-emergent adverse events observed” value [4] was “decreased lymphocyte count, decreased leukocyte count, and hypokalemia”.
